From the supplement of paper PMC12217912
Some of the results follow. The full chains were built here from the parent and the listed change. Values near 0.05 are background.

B1: TEV protease; numbered along this chain (parent)
chain: MGESLFKGPRDYNPISSSICHLTNESDGHTTSLYGIGFGPFIITNKHLFRRNNGTLVVQSLHGVFKVKDTTTLQQHLVDGRDMIIIRMPKDFPPFPQKLKFREPQREERICLVTTNFQTKSMSSMVSDTSCTFPSGDGIFWKHWIQTKDGQCGSPLVSTRDGFIVGIHSASNFTNTNNYFTSVPKNFMELLTNQEAQQWVSGWRLNADSVLWGGHKVFMVKPEEPFQPVKEATQL

Variants of: B1
Assay: raw area under fraction-flipped curve 0-4 h after induction (AUC4h, not background-subtracted), DNA-recorder readout of cleavage of the substrate (dimensionless); higher = more cleavage of the substrate by the protease variant
Settings: temperature: 34 °C; time window: 0-4 h after rhamnose induction
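Note: Bxb1 expression induced with 0.2% (w/v) L-rhamnose at OD600 near 0.5, cultures sampled hourly, flipped fraction per protease–substrate barcode pair counted by paired-end Illumina sequencing.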

Row | Variant | area with substrate ENCYFQS | area with substrate ENRYFQS | area with substrate ENVYFQS | area with substrate ENDYFQS | area with substrate ENEYFQS | area with substrate ENHYFQS | area with substrate ENIYFQS | area with substrate ENNYFQS | area with substrate ENQYFQS | area with substrate ENSYFQS | area with substrate ENYYFQS | area with substrate ENFYFQS | area with substrate ENGYFQS | area with substrate ENKYFQS | area with substrate ENMYFQS | area with substrate ENTYFQS | area with substrate ENWYFQS | area with substrate ENPYFQS
1 | MGESLFKGPRDYNPISSSICHLTNESDGHTTSLYGIGFGPFIITNKHLFRRNNGTLVNQSLHGVFKVKDTTTLQQHLVDGRDMIIIRMPKDFPPFPQKLKFREPQREERICLVTTNFQTKSMSSMVSDTSCTFPSGDGIFWKHWIQTKDGQCGSPLVSTRDGFIVGIHSASNFTNTNNYFTSVPKNFMELLTNQEAQQWVSGWRLNADSVLWGGHKVFMVKPEEPFQPVKEATQL [V58N] | 0.0562 | 0.052 | 0.037 | – | – | – | – | – | – | – | – | – | – | – | – | – | – | –
2 | MGESLFKGPRDYNPISSSICHLTNESDGHTTSLYGIGFGPFIITNKHLFRRNNGTLVVQSLHGVFKVKDTTTLQQHLVDGRPMIIIRMPKDFPPFPQKLKFREPQREERICLVTTNFQTKSMSSMVSDTSCTFPSGDGIFWKHWIQTKDGQCGSPLVSTRDGFIVGIHSASNFTNTNNYFTSVPKNFMELLTNQEAQQWVSGWRLNADSVLWGGHKVFMVKPEEPFQPVKEATQL [D82P] | 0.0538 | 0.0694 | 0.0619 | 0.056 | 0.0651 | 0.0568 | 0.0579 | 0.0543 | 0.0667 | 0.116 | 0.0577 | – | – | – | – | – | – | –
3 | MGESLFKGPRDYNPISSSICHLTNESDGHTTSLYGIGFGPFIITNKHLFRRNNGTLVVQSLHGVFKVKDTTTLQQHLVDGRDMTIIRMPKDFPPFPQKLKFREPQREERICLVTTNFQTKSMSSMVSDTSCTFPSGDGIFWKHWIQTKDGQCGSPLVSTRDGFIVGIHSASNFTNTNNYFTSVPKNFMELLTNQEAQQWVSGWRLNADSVLWGGHKVFMVKPEEPFQPVKEATQL [I84T] | 0.0596 | 0.066 | 0.0563 | – | – | – | 0.0829 | – | – | 0.0805 | – | 0.059 | – | – | – | – | – | –
4 | MGESLFKGPRDYNPISSSICHLTNESDGHTTSLYGIGFGPFIITNKHLFRRNNGTLVVQSLHGVFKVKDTTTLQQHLVDGWDMIIIRMPKDFPPFPQKLKFREPQREERICLVTTNFQTKSMSSMVSDTSCTFPSGDGIFWKHWIQTKDGQCGSPLVSTRDGFIVGIHSASNFTNTNNYFTSVPKNFMELLTNQEAQQWVSGWRLNADSVLWGGHKVFMVKPEEPFQPVKEATQL [R81W] | 0.062 | 0.0603 | 0.0637 | 0.0724 | – | – | 0.0618 | 0.063 | 0.0545 | 0.0534 | 0.0602 | 0.0605 | 0.0616 | 0.0388 | 0.0674 | 0.0542 | – | –
5 | MGESLFKGPRDYNPISSSICHLTNESDGHTTSLYGIGFGPFIITNKHLFRRNNGTLVVQSLHGVFKVKDTTTLQQHLVDGRDMIIIFMPKDFPPFPQKLKFREPQREERICLVTTNFQTKSMSSMVSDTSCTFPSGDGIFWKHWIQTKDGQCGSPLVSTRDGFIVGIHSASNFTNTNNYFTSVPKNFMELLTNQEAQQWVSGWRLNADSVLWGGHKVFMVKPEEPFQPVKEATQL [R87F] | 0.0564 | 0.0419 | 0.0584 | 0.061 | 0.0707 | – | 0.0723 | 0.0609 | 0.0543 | 0.0628 | 0.11 | 0.0546 | 0.0587 | – | 0.0724 | 0.0567 | – | –
6 | MGESLFKGPRDYNPISSSICHLTNESDGHTTSLYGIGFGPFIITNKHLFRRNNGTLVVQSLHGVFKVKDTTTLQVHLVDGRDMIIIRMPKDFPPFPQKLKFREPQREERICLVTTNFQTKSMSSMVSDTSCTFPSGDGIFWKHWIQTKDGQCGSPLVSTRDGFIVGIHSASNFTNTNNYFTSVPKNFMELLTNQEAQQWVSGWRLNADSVLWGGHKVFMVKPEEPFQPVKEATQL [Q75V] | 0.0545 | 0.0449 | – | 0.0564 | 0.0671 | – | – | 0.0746 | 0.0601 | – | 0.0565 | 0.0524 | 0.0699 | 0.0629 | 0.0675 | 0.0384 | – | –
7 | MGESLFKGPRDYNPISSSICHLTNESDGHTTSLYGIGFGPFIITNKHLFRRNNGTLVVQSLHGVFGVKDTTTLQQHLVDGRDMIIIRMPKDFPPFPQKLKFREPQREERICLVTTNFQTKSMSSMVSDTSCTFPSGDGIFWKHWIQTKDGQCGSPLVSTRDGFIVGIHSASNFTNTNNYFTSVPKNFMELLTNQEAQQWVSGWRLNADSVLWGGHKVFMVKPEEPFQPVKEATQL [K66G] | 0.0671 | 0.0563 | – | – | 0.0481 | – | 0.1 | 0.0634 | 0.048 | 0.04 | – | 0.0608 | – | 0.0584 | 0.0713 | 0.0473 | 0.0466 | –
8 | MGESLFKGPRDYNPISSSICHLTNESDGHTTSLYGIGFGPFIITNKHLFRRNNGTLVVQSLHGVFKVKDTTTLYQHLVDGRDMIIIRMPKDFPPFPQKLKFREPQREERICLVTTNFQTKSMSSMVSDTSCTFPSGDGIFWKHWIQTKDGQCGSPLVSTRDGFIVGIHSASNFTNTNNYFTSVPKNFMELLTNQEAQQWVSGWRLNADSVLWGGHKVFMVKPEEPFQPVKEATQL [Q74Y] | 0.0629 | 0.0644 | 0.0785 | – | 0.0582 | 0.0638 | – | 0.0692 | 0.0559 | – | 0.0506 | 0.052 | 0.0596 | – | 0.0803 | – | – | 0.0611
9 | MGESLFKGPRDYNPISSSICHLTNESDGHTTSLYGIGFGPFIITNKHLFRRNNGTLVVQSLHGVFKVKDTTTLQQHLVDSRDMIIIRMPKDFPPFPQKLKFREPQREERICLVTTNFQTKSMSSMVSDTSCTFPSGDGIFWKHWIQTKDGQCGSPLVSTRDGFIVGIHSASNFTNTNNYFTSVPKNFMELLTNQEAQQWVSGWRLNADSVLWGGHKVFMVKPEEPFQPVKEATQL [G80S] | 0.0594 | 0.0359 | 0.0694 | – | 0.0673 | 0.0387 | – | 0.057 | – | – | 0.083 | 0.049 | 0.0609 | – | – | 0.0631 | – | –
10 | MGESLFKGPRDYNPISSSICHLTNESDGHTTSLYGIGFGPFIITNKHLFRRNNGTLVVQSLHGVDKVKDTTTLQQHLVDGRDMIIIRMPKDFPPFPQKLKFREPQREERICLVTTNFQTKSMSSMVSDTSCTFPSGDGIFWKHWIQTKDGQCGSPLVSTRDGFIVGIHSASNFTNTNNYFTSVPKNFMELLTNQEAQQWVSGWRLNADSVLWGGHKVFMVKPEEPFQPVKEATQL [F65D] | 0.0713 | – | 0.101 | 0.0478 | 0.058 | – | – | – | 0.0576 | 0.0567 | 0.0604 | – | – | 0.0564 | – | – | – | 0.0398
